Results published in PubChem BioAssay AID651820 (National Center for Advancing Translational Sciences (NCATS), 2012).
The whole screen tested about 340,000 compounds, of which about 12,000 (3.5%) were called active. The shares of active, inactive and inconclusive entries below differ from those in the screen. The call rests on the fitted dose curve; in most records, active means well fitted inhibition curve with a large enough effect; inconclusive means small, poorly fitted or top-dose-only effect, or another doubt; inactive means no such curve, though single readings can be large or run the other way. Potencies of inconclusive entries are left out as doubtful fits.

assay: qHTS Assay for Inhibitors of Hepatitis C Virus (HCV); settings: Huh7.5.1 HCVcc-Cre (HCVcc is cell-culture hepatitis C virus) infection, luciferase reporter, 44 h; activity change, negative = inhibition: at 41.8 µM (top of the series) unless noted
Summary of the method: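 Reporter virus HCVcc-Cre (~0.5 moi) infects cells exposed to compound; seeding density 1,000 cells/well with 4 h settling beforehand. Luminescence, 15 sec read, taken 44 h post-infection following a 15 min RT substrate incubation.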
On the % scale 0 is the no-effect control and ±100 the full control effect; potency means the concentration at half of the fitted maximal effect; tags describe the fitted curve by direction and shape.

Row | SMILES | Potency | activity change, negative = inhibition
1 | Cc1ccc(C)c(N(CC(=O)NC2CCCC2)C(=O)c2cc3cc4cc(C)ccc4nc3s2)c1 | active: 22.4 µM | 
2 | COc1ccc2[nH]cc(CC(=O)O)c2c1 |  | inactive: -2.44% [at 8.37 µM]
3 | O=C(Cn1cnc2c(nnn2Cc2ccc(Cl)cc2)c1=O)N1CCN(c2ccccc2)CC1 | inconclusive [inhibitor, single point] | 
4 | N#CCc1c[nH]c2ccc([N+](=O)[O-])cc12 | inconclusive [inhibitor, single point] | 
5 | CCC1CCCCN1CC(O)Cn1c2ccccc2n2c(=O)cc(C)c(C#N)c12 (centres undefined) | inconclusive [inhibitor, partial curve] | 
6 | Cc1noc(C)c1COc1ccccc1C(=O)NNC(=O)c1ccccc1 |  | inactive: -8.29%
7 | Cc1c(NC(=O)Nc2ccc(Cl)c(Cl)c2)sc(=S)n1C | inconclusive [inhibitor, single point] | 
8 | Clc1ccc(NCc2nnc3n2CCCCC3)cc1 |  | inactive: 5.95%
9 | CCn1c2ccccc2c2cc(NS(=O)(=O)c3ccc(C)cc3)ccc21 | inconclusive [inhibitor, single point] | 
10 | CCOC(=O)Nc1ccc(C)cc1NC(=O)OCC |  | inactive: -26.8%
11 | Cc1ccc(-n2c(C)cc(C(=O)CN3CCCCC3)c2C)cc1 |  | inconclusive: -34.9% [inhibitor]
12 | COc1ccccc1N1CCN(C(=O)C2CCCN(c3ncnc4c3nc3n4CCCCC3)C2)CC1 (centres undefined) | inconclusive [inhibitor, partial curve] | 
13 | COc1ccc(-c2csc3nc(C)nc(N4CCCCC4)c23)cc1OC | inconclusive [inhibitor, single point] | 
14 | Cc1cc(N(C)C)nc(Nc2ccccc2)n1 | inconclusive [inhibitor, single point] | 
15 | Cc1cc(OCCCn2ccnc2)ccc1C(C)C |  | inactive: -21.1%
16 | O=C(C1CC(c2ccccc2O)=NO1)N1CCCCC1 (centres undefined) |  | inactive: -0.813%
17 | Cc1cc(NCc2ccccn2)n2nc(C)c(-c3ccc(Cl)cc3)c2n1 | active: 4.47 µM | 
18 | Cc1ccc(-n2nc3c(SCCN4CCOCC4)nnc(C)c3c2C)cc1 | inconclusive [inhibitor, partial curve] | 
19 | CC(C)CC(NC(=O)OC(C)(C)C)c1cn([C@@H](Cc2cc3ccccc3[nH]2)C(=O)N2CCN(C(=O)OC(C)(C)C)CC2)nn1 (some centres undefined) | inconclusive [inhibitor, single point] | 
20 | CC(C)N(C(=O)CCl)c1ccccc1 | active: 10 µM | 
21 | Nc1nn2c(C(F)(F)F)cc(=O)[nH]c2c1N=Nc1cccc(F)c1 | inconclusive [inhibitor, single point] | 
22 | CCC(C)n1cnc2c(c1=O)c1nc3ccccc3nc1n2Cc1ccc(OC)cc1 (centres undefined) | inconclusive [inhibitor, single point] | 

Row | SMILES | Potency | activity change, negative = inhibition
23 | N#Cc1cc(NC2CCCC2)c([N+](=O)[O-])cc1C#N | inconclusive [inhibitor, partial curve] | 
24 | COc1cccc(NC(=O)CN(C)C(=O)c2ccc(NC(=O)CC3SC(N4CCCC4)=NC3=O)cc2)c1 (centres undefined) |  | inactive: 5.99%
25 | Cc1cccc(C)c1NC(=O)NC1(C(=O)N2CCOCC2)CCCCC1 |  | inactive: -15.1%
26 | CCOc1cc(CC(=O)N[C@@H](CC(C)C)c2ccccc2N2CCCCC2)ccc1C(=O)O | inconclusive [inhibitor, partial curve, poor fit] | 
27 | CCCCCCCC(=O)NC(Nc1ccccc1OC)C(Cl)(Cl)Cl (centres undefined) | inconclusive [inhibitor, single point] | 
28 | CSc1sc(C(=O)N2CCc3ccccc32)cc1S(=O)(=O)C(C)C | inconclusive [inhibitor, single point] | 
29 | CN(Cc1ccccc1)C(=O)c1ccc(NC(=O)Cc2ccc([N+](=O)[O-])cc2)cc1 | inconclusive [inhibitor, single point] | 
30 | O=C(CSc1n[nH]c(Cc2ccccc2)n1)Nc1ccccc1Br | inconclusive [inhibitor, full curve, poor fit] | 
31 | COc1cc(C(=O)Nc2cccc(-c3nc4cc(C)ccc4o3)c2C)cc(OC)c1OC |  | inactive: 2.1%
32 | CCCS(=O)(=O)c1nc(S(=O)(=O)c2ccc(C)cc2)c(NCc2ccco2)s1 | inconclusive [inhibitor, partial curve] | 
33 | Cc1cccc(N2CCN(C(=O)Cn3cccc3C(=O)c3ccccc3)CC2)c1C | inconclusive [inhibitor, single point] | 
34 | Cn1c(C(=O)Nc2ccc(Cl)cc2)cc2cc(Cl)ccc21 |  | inactive: 10.3%
35 | CC(C)Cn1c(N2CCN(CC(=O)Nc3ccc(Cl)cc3)CC2)nc2ccccc21 | inconclusive [inhibitor, full curve] | 
36 | Cc1ccc(S(=O)(=O)N(C)C)cc1NC(=O)c1ccccc1SCC(=O)N1CCCC1 |  | inactive: -1.53%
37 | c1ccc(CN=C(NCc2ccccc2)NCc2ccccc2)cc1 | inconclusive [inhibitor, single point] | 
38 | COc1ccc(/C=N/Nc2ccc(C(F)(F)F)cc2[N+](=O)[O-])cc1O | inconclusive [inhibitor, single point] | 
39 | Clc1cccc(-c2nc3nc4ccccc4nc3n2Cc2ccccc2)c1 | inconclusive [inhibitor, single point] | 
40 | Cc1ccc2c(c1)C1CN(C)CCC1N2S(=O)(=O)c1cc(C(F)(F)F)ccc1Cl (centres undefined) | inconclusive [inhibitor, single point] | 
41 | COc1cccc(CCC(=O)N2CCC(n3nccc3NC(=O)CC(C)C)CC2)c1 |  | inactive: -4.34%
42 | Cc1cccc(N2CCN(C(=O)CCNS(=O)(=O)c3ccc4c(c3)oc(=O)n4C)CC2)c1C | inconclusive [inhibitor, full curve, poor fit] | 
43 | COc1ccc(-c2noc(CCCc3ccccc3)n2)cc1OC | inconclusive [inhibitor, partial curve] | 
44 | CC(C)c1ccc(C2CC(c3ccc(Br)cc3)=NN2C(N)=S)cc1 (centres undefined) | inconclusive [inhibitor, single point] | 
